Experimental data: the supplement of paper PMC10600219
Where a name gives a salt, the structure may show the parent alone. In all, about 2,800 compounds were measured (“cell viability relative to vehicle”: median about 0.98, lowest 2% from about 0.45 on). The list shows a part of the results.

test system: NCI-H2228 alectinib-DTP; test: cell viability relative to vehicle (fraction of vehicle); NCI-H2228 is an ALK-positive lung cancer line and DTP means drug-tolerant persister; higher = less growth inhibition; settings: 100 nM; treatment time 6 days
Procedure, shortened: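 Drug-tolerant persister NCI-H2228 cells, produced by 13 days in 1000 nM of a targeted drug, and their parental counterparts were seeded into 384-well plates and, the following day, given the 3114-agent TargetMol anti-cancer compound library at 100 nM or DMSO vehicle. After 6 days, the CellTiter-Glo 3D Cell Viability Assay was used to read ATP. Each entry reports viability compared with vehicle-treated cells.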

| Compound | cell viability |
| --- | --- |
| COc1cc(/C=C/c2ccc(O)cc2)cc(OC)c1 [Pterostilbene] | 0.819 |
| CCOC(=O)c1ncn2c1CN(C)C(=O)c1cc(F)ccc1-2 [Flumazenil] | 0.912 |
| O=NN(CCCl)C(=O)NCCCl [Carmustine] | 0.936 |
| CC1=C(C(=O)Nc2cc3cn[nH]c3cc2F)C(c2ccc(C(F)(F)F)cc2)CC(=O)N1 (configuration not stated) | 1.11 |
| CNC(=O)c1ccccc1Nc1nc(Nc2ccc(N3CCOCC3)cc2OC)ncc1Cl | 0.926 |
| Cn1c(=O)cc(C(=O)Nc2ccc3c(c2)OCCO3)c2ccccc21 | 0.872 |
| O[C@@H]1[C@H](O)[C@H](O)CO[C@H]1O [D-(-)-Ribose] | 1.06 |
| CCCCN(Cc1ccc(C(=O)NO)cc1)C(=O)Nc1ccccc1 [Nexturastat A] | 0.877 |
| CC(C(=O)O)c1cccc(C(=O)c2ccccc2)c1 (configuration not stated) [Ketoprofen] | 0.994 |
| N#Cc1ccnc(Nc2cc(C3CCN(C4COC4)CC3)cc(N3CCC(F)(F)C3)n2)c1 | 0.854 |
| Cn1c(=O)c(Oc2ccc(F)cc2F)cc2cnc(NC(CCO)CCO)nc21 [Pamapimod] | 1.01 |
| NCCCC[C@@H]1NC(=O)[C@@H](Cc2ccccc2)NC(=O)[C@H](CC(=O)O)NC(=O)CNC(=O)[C@H](CCCN=C(N)N)NC1=O [Cyclo (-RGDfK)] | 0.995 |
| c1cc(-c2cnn3cc(-c4ccc(N5CCNCC5)cc4)cnc23)c2cccnc2c1 | 1.19 |
| O=C([O-])CN(CCN(CC(=O)[O-])CC(=O)O)CC(=O)[O-].[Na+].[Na+].[Na+] [Edetate Trisodium] | 1.15 |
| COc1ccc(/C=C\c2cc(OC)c(OC)c(OC)c2)cc1O [Combretastatin A4] | 0.642 |
| Cc1cccc(C)c1N(CC(=O)Nc1ccc(-c2ncon2)cc1)C(=O)C1CCS(=O)(=O)CC1 [Amenamevir] | 0.926 |
| CCN(CC)CCNC(=O)c1c(C)[nH]c(/C=C2\C(=O)Nc3ccc(-c4csc(-c5ccccc5)n4)cc32)c1C [Amcasertib] | 1.18 |
| COc1cc(C(C)=O)ccc1OCCCN1CCC(c2noc3cc(F)ccc23)CC1 [Iloperidone] | 0.901 |
| C[C@@H]1CC(=O)Nc2cccc(-c3ccc4c(c3)c(-c3cnn(C)c3)nn4C)c2N1 | 1.01 |
| CC(C)(C)c1ccc(C(=O)NC(=S)Nc2ccc(N)cc2)cc1 [Tenovin3] | 0.734 |
| COc1c(N2C[C@@H]3CCCN[C@@H]3C2)c(F)cc2c(=O)c(C(=O)O)cn(C3CC3)c12 [Moxifloxacin hydrochloride] | 1.03 |
| Nc1nc2cc(-c3ccc4ncc(C(=O)N5CCOCC5)n4c3)ccc2o1 [Serabelisib] | 0.985 |
| COc1ncnc(NS(=O)(=O)c2ccc(N)cc2)c1OC [Sulfadoxine] | 1.02 |
| CS(=O)(=O)N1CCN(Cc2cc3nc(-c4cccc5[nH]ncc45)nc(N4CCOCC4)c3s2)CC1 [Pictilisib] | 0.669 |
| CC(C)NCC(O)c1ccc(O)c(O)c1 (configuration not stated) [Isoprenaline hydrochloride] | 1.15 |
| COc1ccc2[nH]c([S@@+]([O-])Cc3ncc(C)c(OC)c3C)nc2c1 [Esomeprazole Magnesium] | 0.972 |

| Compound | cell viability |
| --- | --- |
| Oc1ccc(-c2c(-c3ccccc3)nn3c(C(F)(F)F)cc(C(F)(F)F)nc23)cc1 | 1.04 |
| COc1ccc(S(=O)(=O)Nc2c(C)cc(C)cc2C)cc1 | 1.02 |
| Cc1cc(O)c(C(=O)CCC(C)C)c(=O)o1 [Pogostone] | 1.13 |
| Nc1nc2c(ncn2COCCO)c(=O)[nH]1 [Aciclovir] | 1.11 |
| CC(C)(CCCCCC(O)CCCCCC(C)(C)C(=O)O)C(=O)O | 1.1 |
| O=C(O)Cn1c2c(c3cc(F)ccc31)CN(C(=O)c1cccc3ccccc13)CC2 [Setipiprant] | 1.18 |
| O=S(=O)(c1ccccc1)N(CC(F)(F)F)c1ccc(C(O)(C(F)(F)F)C(F)(F)F)cc1 | 0.833 |
| CC#CC(=O)Nc1ccc2ncnc(Nc3cccc(Br)c3)c2c1 | 0.829 |
| Cc1nc2cccc(N)c2c(=O)n1C1CCC(=O)NC1=O (configuration not stated) [Avadomide] | 0.982 |
| CC(C)n1cnc2c(-c3cnc(N)nc3)nc(N3CCOCC3)nc21 [Desmethyl-VS-5584] | 0.893 |
| O=C(O)c1ccc(N2C(=O)/C(=C\c3ccc(-c4ccc([N+](=O)[O-])cc4)o3)C=C2c2ccccc2)cc1 [4E1rcat] | 0.914 |
| COc1cc(F)c(F)c(Nc2ccc(I)cc2F)c1NS(=O)(=O)C1(C[C@H](O)CO)CC1 [Refametinib] | 1.06 |
| C#C[C@]1(O)CC[C@H]2[C@@H]3CCc4cc(O)ccc4[C@H]3CC[C@@]21C [Ethynyl estradiol] | 1.03 |
| O=C(O)C(Cc1c[nH]c2ccccc12)N1C(=O)c2ccccc2C1=O (configuration not stated) | 0.915 |
| CCOc1cc(CC(=O)N[C@@H](CC(C)C)c2ccccc2N2CCCCC2)ccc1C(=O)O [Repaglinide] | 1.13 |
| C[C@@H]1CC[C@]2(C(=O)O)CC[C@]3(C)C(=CCC4[C@@]5(C)CC[C@H](O[C@@H]6OC[C@H](O)[C@H](O)[C@H]6O)C(C)(C)C5CC[C@]43C)[C@@H]2[C@]1(C)O (some centres not stated) [Ziyuglycoside II] | 1.09 |
| Cn1c(=O)n(-c2ccc(C(C)(C)C#N)cc2)c2c3cc(-c4cnc5ccccc5c4)ccc3ncc21 [Dactolisib] | 0.435 |
| Cc1cc(C(=O)Nc2nc3cccc(Cl)c3n2[C@@H]2CCCCN(C(=O)/C=C/CN(C)C)C2)ccn1 [Nazartinib] | 0.907 |
| COc1cc2/c(=N/c3ccc(Br)cc3F)nc[nH]c2cc1OCC1CCN(C)CC1 [Vandetanib] | 0.905 |
| Cn1cc(C[C@@H](N)C(=O)O)c2ccccc21 [Indoximod] | 1.14 |
| O=C(CCCCCN1C(=O)c2cccc3cccc(c23)C1=O)NO [Scriptaid] | 0.917 |
| O=C(O)[C@@H]1CSCN1 [Thioproline] | 1.1 |
| C=C[C@@]1(C)CC(=O)[C@]2(O)[C@@]3(C)[C@@H](O)CCC(C)(C)[C@@H]3[C@H](O)[C@H](OC(C)=O)[C@@]2(C)O1 [Forskolin] | 1.1 |
| CCN(CC)C(=S)SSC(=S)N(CC)CC [Disulfiram] | 0.983 |
| O=C1C(=Cc2cccnc2)C(=O)c2ccccc21 | 1.07 |
| Cc1cc(OCCCS(C)(=O)=O)cc(C)c1-c1cccc(COc2ccc3c(c2)OC[C@H]3CC(=O)O)c1 | 0.968 |
